Where “and” joins values, the source holds several entries; their conditions need not be identical. Equal values may be shown once. Inconclusive results, whose numbers are uncertain, are shown with a selection of clear calls. Potencies of inconclusive entries are doubtful fits and often do not repeat. Where a structure was tested more than once in an assay, its records may differ in their call. Calls of active or inactive are those of the source. Calls come from the whole dose curve; as a rule, active = well fitted cell-killing curve with a large enough effect in the repeat runs; inconclusive = weak or mixed curves, or effect the other way; inactive = no such curve, though single readings can be large or run the other way.
Experiment: qHTS assay to identify small molecule agonists of the estrogen receptor alpha (ER-alpha) signaling pathway in the presence of an antagonist - cell viability counter screen (AID 1259386);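 note: cells exposed to compounds for 22 h at 37 °C before the viability read; nearly all actives have a fitted effect of over 30% in size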
Conditions: VM7Luc4E2 viability, CellTiter-Fluor fluorescence, 22 h; series mostly up to 92.4 µM; activity change, negative = cytotoxicity: at the top concentration
From the text: National Center for Advancing Translational Sciences [NCATS]
NIH Chemical Genomics Center [NCGC]
U.S. Environmental Protection Agency [EPA]
National Institutes of Environmental Health Sciences [NIEHS]
National Toxicology Program [NTP]
U.S. Food and Drug Administration [FDA]
Estrogen receptor (ER), a member of nuclear hormone receptor plays an important role in development, metabolic homeostasis and reproduction. Two subtypes of ER, ER-alpha and ER-beta, have similar expression patterns with some uniqueness in both types. Endocrine disrupting chemicals (EDCs) and their interactions with steroid hormone receptors like ER causes disruption of normal endocrine function. Therefore, it is important to understand the effect of environmental chemicals in ER signaling pathway. For identifying ER agonists, VM7Luc4E2 cell line has been used in the current assay.
VM7Luc4E2 cell line (provided by Denison MS, University of California) endogenously expresses full-length ER-alpha and is stably transfected with a plasmid containing four estrogen responsive elements (ERE) upstream of a luciferase reporter gene. This current screening for measuring luciferase reporter gene activity using VM7Luc4E2 cells against Tox21 10K library collection is a confirmation study on agonist mode screening in presence of ER-antagonist (ICI-182,780) at 10.0nM final concentration. The cytotoxicity of the compounds was tested in parallel by measuring the cell viability using CellTiter-Fluor assay system (Promega, Madison, WI) in the same wells.
Tox21 Assay Protocol Summary:
VM7Luc4E2 cells were cultured in phenol red free assay medium containing 10% charcoal stripped FBS for 5 days prior to the assay. The cells were dispensed at 4,000 cells in 4uL of assay medium per well into white wall/solid-bottom 1536-well plates (Corning Life Sciences, Corning, NY) using a Multidrop Combi (Thermo Fisher Scientific Inc., Waltham, MA) dispenser. After the assay plates were incubated at 37C and 5% CO2 for 24hr, 1uL of 10.0nM (final concentration) ICI-182,780 or assay buffer was added using two separate tips of Flying Reagent Dispenser (FRD, Aurora Discovery, San Diego, CA). Then 23nL of compounds dissolved in DMSO at 15 concentrations and positive controls or DMSO only was transferred to the assay plates by a Pintool station (Wako, San Diego, CA). The assay plates were incubated at 37C and 5% CO2 for 22hr. After 21hr incubation at 37C, 1uL/well CellTiter-Fluor reagent (Promega Corporation, Madison, WI) was added to each well using FRD and after 1hr incubation at 37C and 5% CO2, the fluorescence signal was measured on ViewLux plate reader (PerkinElmer, Shelton, CT).
% is set by controls: 0 for no effect and ±100 for the full control effect; potency is the fitted concentration of half-maximal effect; tags give direction and shape of the fitted curve.

Row | SMILES | Potency | activity change, negative = cytotoxicity
1 | COc1ccccc1OCCNCC(O)COc1cccc2[nH]c3ccccc3c12 (stereo not given) | inconclusive: 10.6 µM [cytotoxic, full curve] | 
2 | Cc1cc(Cc2cc(C)cc(C(C)(C)C)c2O)c(O)c(C(C)(C)C)c1 | inconclusive: 48.8 µM [cytotoxic, partial curve, poor fit] and inconclusive: 68.6 µM [cytotoxic] | 
3 | Cc1c(C)c2c(c(C)c1O)CCC(C)(COc1ccc(CC3SC(=O)NC3=O)cc1)O2 (stereo not given) | inconclusive: 68.6 µM [cytotoxic, partial curve, poor fit] | 
4 | CCCCCCCCCCCCN | inconclusive: 137 µM [cytotoxic, partial curve, poor fit] | 
5 | Cc1ccc(-n2[nH]c(C)c(N=Nc3cccc(-c4cccc(C(=O)O)c4)c3O)c2=O)cc1C | active: 29.8 µM | 
6 | O=c1ccc2ccccc2o1 | inactive | 
7 | O=C(OCC1CCC2OC2C1)C1CCC2OC2C1 (stereo not given) | inconclusive: 71.8 µM [cytotoxic, partial curve, poor fit] and inconclusive: 54.5 µM [cytotoxic, partial curve, poor fit] | 
8 | O=c1[nH]sc2ccccc12 | inconclusive: 68.6 µM [cytotoxic, single point] | 
9 | O=C(c1ccc(OCCN2CCCCC2)cc1)c1c(-c2ccc(O)cc2)sc2cc(O)ccc12 | active: 54.5 µM and active: 30.6 µM and inconclusive: 18.8 µM [cytotoxic, partial curve] | 
10 | CC/C(=C(\c1ccccc1)c1ccc(OCCN(C)C)cc1)c1ccccc1 | inconclusive: 68.5 µM [cytotoxic, single point] and inconclusive: 68.6 µM [cytotoxic, single point] | 
11 | CC(C)(C)NC(=O)[C@@H]1C[C@@H]2CCCC[C@@H]2CN1C[C@@H](O)[C@H](Cc1ccccc1)NC(=O)[C@H](CC(N)=O)NC(=O)c1ccc2ccccc2n1 | active: 49.2 µM | 
12 | CC[C@@]1(O)C(=O)OCc2c1cc1n(c2=O)Cc2c-1nc1ccccc1c2/C=N/OC(C)(C)C | inconclusive: 0.944 µM [cytotoxic, full curve] | 
13 | S=C(NC1CCCCC1)NC1CCCCC1 | inconclusive: 38.6 µM [cytotoxic, partial curve, poor fit] | 
14 | COc1ccc(OC)c(C(O)CNC(=O)CN)c1 (stereo not given) | inconclusive: 13.3 µM [cytotoxic, single point] | 
15 | BrC1CCC(Br)C(Br)CCC(Br)C(Br)CCC1Br (stereo not given) | inconclusive: 68.3 µM [cytotoxic] and inconclusive: 65.1 µM [cytotoxic, single point] | 
16 | N=C1N=C(N)c2cc3ccccc3cc21 | inconclusive: 61.1 µM [cytotoxic] | 
17 | O=C(c1ccc(O)cc1O)c1ccc(O)cc1O | inactive | 
18 | CCCCCCOc1cc(C)c(O)c(C)c1C | inconclusive: 69.4 µM [cytotoxic, partial curve, poor fit] | 
19 | CCCCCCC(C)Nc1ccc(Nc2ccccc2)cc1 (stereo not given) | inconclusive: 61.1 µM [cytotoxic, single point] | 
20 | CCCCCCCCOC(=O)c1ccc(O)cc1 | inconclusive: 43.3 µM [cytotoxic, partial curve, poor fit] | 

Row | SMILES | Potency | activity change, negative = cytotoxicity
21 | CCCCCCOC(=O)c1ccc(O)cc1 | inconclusive: 43.3 µM [cytotoxic, partial curve, poor fit] | 
22 | O=C(COc1ccc(Cl)cc1)N1CCN(Cc2ccc3c(c2)OCO3)CC1 | inconclusive: 54.5 µM [cytotoxic, partial curve] | 
23 | CCCCCCCC/C=C\CCCCCCCCOCCO | active: 35.5 µM | 
24 | C=C1C(C)(C)[C@@]2(Cl)C(Cl)[C@]1(Cl)C(Cl)(Cl)C2(Cl)Cl (stereo not given in full) | inconclusive: 67.3 µM [cytotoxic, single point] | 
25 | C=CCCCCCCC=C |  | inactive: -4.69%
26 | CN(C)CCOc1ccc(/C(=C(/CCCl)c2ccccc2)c2ccccc2)cc1 | inconclusive: 51 µM [cytotoxic, partial curve, poor fit] | 
27 | C=CC(=O)OCCOCCOCCOCCOC(=O)C=C | active: 54.8 µM and active: 68 µM | 
28 | CC1=C(C(=O)OC(C)C)C(c2cccc([N+](=O)[O-])c2)C(C(=O)OC2CN(C(c3ccccc3)c3ccccc3)C2)=C(N)N1 (stereo not given) | inconclusive: 33.5 µM [cytotoxic] | 
29 | Cc1ccc2nc(-c3ccc(N)cc3)sc2c1S(=O)(=O)O |  | inactive: -9.91% [at 42.5 µM]
30 | O=C1c2c(O)ccc([N+](=O)[O-])c2C(=O)c2c([N+](=O)[O-])ccc(O)c21 | active: 24.1 µM | 
31 | CCCCCCCCOC(=O)c1cc(O)c(O)c(O)c1 | active: 54.5 µM | 
32 | CC1=C(/C=C/C(C)=C/C=C/C(C)=C\C=O)C(C)(C)CCC1 | inconclusive: 57.9 µM [cytotoxic, partial curve, poor fit] | 
33 | CC1CC(OC(=O)c2ccccc2O)CC(C)(C)C1 (stereo not given) | inactive | 
34 | O=C(Nc1ccc(Cl)cc1)Nc1ccc(Cl)c(Cl)c1 | inconclusive: 68.2 µM [cytotoxic, single point] and active: 33.5 µM | 
35 | CCCCCCCCCCCCc1ccc(O)cc1 | active: 68.6 µM | 
36 | O=C(Nc1ccc(Cl)cc1)Nc1ccc(Cl)c(C(F)(F)F)c1 | inconclusive: 13.3 µM [cytotoxic, full curve] | 
37 | O=C(NO)c1ccccc1 | inconclusive: 26 µM [cytotoxic, partial curve] | 
38 | CCCOc1sc(C(=O)N2CCC(c3cc(CN)ccc3F)CC2)c(C)c1Br | inconclusive: 62.8 µM [cytotoxic] | 
39 | Cc1cc(Nc2ccc(O)cc2)ccc1N | active: 30.5 µM | 
40 | CCCCCCCCCCCCCCCC[N+](C)(C)Cc1ccccc1 | inconclusive: 89.1 µM [cytotoxic, partial curve, poor fit] | 

Reference: PubChem BioAssay (Tox21)
